In all, about 48,000 compounds went through this assay and about 550 (1.1%) were called active. Not shown: some 4% with an inconclusive outcome. Rule as the data show it: active = potency below about 15 µM; inconclusive = mostly about 16 µM to 33 µM; inactive = weaker than that. This is one part of the list.
biological target: Lysosomal acid glucosylceramidase (Homo sapiens) (UniProt P04062); assay: Glucocerebrosidase; settings: purified enzyme, resorufin glucoside fluorescence (screen aimed at inhibitors), 20 min; series mostly up to 77 µM;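 also: the screen sought inhibitors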
In short: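 Wild-type enzyme at 0.2 nM final in 50mM citric acid/KH2PO4, 10mM sodium taurocholate, 0.01% tween-20, pH 5.9, with resorufin beta-D-glucopyranoside at 30 uM final. Compounds titrated, 20 min at RT, red fluorescence read; AC50 from titration.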
Potency is read from the fitted curve at half-maximal effect.

UniProt P04062, sequence (P04062 whole entry, looked up): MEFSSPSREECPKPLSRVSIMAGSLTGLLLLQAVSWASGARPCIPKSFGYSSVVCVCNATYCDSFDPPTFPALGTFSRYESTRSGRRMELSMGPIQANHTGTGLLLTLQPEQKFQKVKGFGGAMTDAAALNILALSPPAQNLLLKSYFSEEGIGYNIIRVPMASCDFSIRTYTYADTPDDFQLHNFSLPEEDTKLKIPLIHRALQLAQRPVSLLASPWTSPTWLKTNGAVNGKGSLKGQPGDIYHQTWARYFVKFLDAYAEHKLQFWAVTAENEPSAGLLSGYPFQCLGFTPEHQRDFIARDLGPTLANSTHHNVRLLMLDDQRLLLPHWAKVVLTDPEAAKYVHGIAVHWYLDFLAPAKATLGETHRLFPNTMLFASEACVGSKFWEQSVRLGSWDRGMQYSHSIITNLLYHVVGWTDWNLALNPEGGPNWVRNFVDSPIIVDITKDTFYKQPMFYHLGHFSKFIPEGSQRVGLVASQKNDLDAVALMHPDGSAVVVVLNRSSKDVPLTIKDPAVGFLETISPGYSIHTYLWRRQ

Potency, inactive:
CC1(C)CC(=O)C(C=NCCN2CCN(CCCCS(=O)(=O)O)CC2)=C(O)C1 > 76.9 µM
CCOC(=O)c1cnc(N2CCOCC2)[nH]c1=O > 76.9 µM
COc1ccc(-c2cc(C(=O)Nc3ccc(C)cc3)no2)cc1 > 76.9 µM
Cc1cc(NC(=O)CSc2nnc3c(C)cc4c(C)ccc(C)c4n23)no1 > 76.9 µM
Cn1c(=O)[nH]c(=O)c2c1nc(NCCCO)n2CCCc1ccccc1 > 76.9 µM
COc1cc2[nH]c(=O)n(CCC(=O)NCc3cccnc3)c(=O)c2cc1OC > 76.9 µM
Cc1ccc(N2CCCn3c2nc2c3c(=O)n(CC(=O)OCc3ccccc3)c(=O)n2C)cc1C > 76.9 µM
Cc1nc2nc(SCC(=O)N3CCOCC3)nn2c(C)c1Cc1c(F)cccc1Cl > 76.9 µM
CCc1cccc(NC(=O)C2CCCC2)c1 > 76.9 µM
CCC(=O)N1c2ccc(S(=O)(=O)CCC(=O)Nc3nccs3)cc2CC1C (configuration not stated) > 76.9 µM
O=C(NCc1ccco1)c1cccn2c(=O)c3sccc3nc12 > 76.9 µM
COc1ccc(CNS(=O)(=O)c2ccc(S(=O)(=O)N3CCCCC3)cc2)cc1 > 76.9 µM
Cc1cc(NC(=O)CCS(=O)(=O)c2nc(-c3ccccc3)cc(C(F)(F)F)n2)no1 > 76.9 µM
O=C(Nc1cccc2ncccc12)c1cc2ccccc2o1 > 76.9 µM
CCCC(=O)Nc1ccc(Cl)c(NC(=O)c2ccco2)c1 > 76.9 µM
O=C(CSC1CCCCC1)Nc1nccs1 > 76.9 µM
O=C(NCCCN1CCN(c2cccc(Cl)c2)CC1)c1cccc(N2CCCC2=O)c1 > 76.9 µM
CN1/C(=C\C(=O)c2cccs2)Sc2ccccc21 > 76.9 µM
Nc1ccnc(C(F)(F)F)c1C(=O)c1ccccc1 > 76.9 µM
Nc1ccc(Sc2nnnn2-c2ccccc2)c(Cl)c1 > 76.9 µM
CN(C)C(=O)N1CCC(C(=O)NCc2ccccc2Cl)CC1 > 76.9 µM
CCC(=O)N1CCN(c2ccc(Cl)cc2NC(=O)c2ccc3c(c2)OCCO3)CC1 > 76.9 µM
Cn1c(=O)c2c(ncn2CCCc2ccccc2)n(C)c1=O > 76.9 µM
Cn1c(SCC(=O)N(C2CCCCC2)C2CCCCC2)nnc1-c1cccs1
CCOC(=O)CCNCC1COc2ccccc2O1 (configuration not stated) > 76.9 µM
Cc1ccc(NC(=O)COS(=O)c2ccc(C)cc2)cc1 (configuration not stated) > 76.9 µM
CCOC(=O)N1CCC(NC(=O)Cn2ncc3c4ccccc4n(C)c3c2=O)CC1 > 76.9 µM
COCCCN1C(=O)C(=O)/C(=C(/O)c2ccc(OC(C)C)c(C)c2)C1c1ccncc1 (configuration not stated) > 76.9 µM
CC1Cc2cc(/C(O)=C3/C(=O)C(=O)N(CCCn4ccnc4)C3c3ccco3)ccc2O1 (configuration not stated) > 76.9 µM
COC(=O)CCN(C(=O)C1C2CC3CC(C2)CC1C3)c1ccccn1 (configuration not stated) > 76.9 µM
CCC1Oc2ccccc2N(CC(=O)NCCCN2CCCCC2CC)C1=O (configuration not stated) > 76.9 µM
CCOc1ccc(N2C(=O)CSC2c2ccncc2)cc1 (configuration not stated) > 76.9 µM
O=C(NCc1cccnc1)c1cccc(Cl)c1 > 76.9 µM
Cc1cc(C)n(-c2ccc3cccc(NS(C)(=O)=O)c3n2)n1 > 76.9 µM
Cc1ccc(-n2ncc(C#N)c2/N=C/N2CCCCCC2)cc1 > 76.9 µM
COCCCNC(=O)C1C2C=CC3(CN(Cc4ccc(C)cc4)C(=O)C13)O2 (configuration not stated) > 76.9 µM
CCOc1ccccc1NC(=O)CSc1nnnn1-c1ccc(C(=O)OC)cc1 > 76.9 µM
O=C(NCc1ccc2c(c1)OCO2)c1ccccn1 > 76.9 µM
CCOC(=O)c1ccccc1NC(=O)CC1SC(=NC)N(C)C1=O (configuration not stated) > 76.9 µM
Cc1nn(-c2ccccc2)c2sc(C(=O)N(Cc3ccco3)C(C)C(=O)NC(C)(C)C)cc12 (configuration not stated)
CC(=O)c1ccc(OCCCC(=O)n2nnc3ccccc32)cc1 > 76.9 µM
O=C(CSc1nnc(-c2ccco2)o1)NC1CCCCCC1 > 76.9 µM
CCOC(=O)c1c(C)c(C(=O)NCC2CCCO2)c(C)n1CC (configuration not stated) > 76.9 µM
CCOC(=O)c1nnn(CC(=O)Nc2cccc(F)c2)c1C(=O)OCC > 76.9 µM
C=CCn1c(=O)/c(=C/c2ccc(F)cc2)s/c1=C(\C#N)c1nnc2n1CCCCC2
O=C(Nc1cccc(-c2nc3cccnc3s2)c1)c1ccco1 > 76.9 µM
Cc1ccc(C(C(=O)NCCc2ccccc2)N(C(=O)c2csnn2)C2CC2)o1 (configuration not stated) > 76.9 µM
COc1ccccc1C(=O)Nc1ccc(C(=O)O)cc1 > 76.9 µM
C=CCOc1ccc(C(=O)N(Cc2ccc(N(C)C)cc2)C2CCS(=O)(=O)C2)cc1 (configuration not stated) > 76.9 µM
COc1ccc(CCNC(=O)CCNS(=O)(=O)c2ccc3c(c2)CCN3C(C)=O)cc1OC > 76.9 µM
Cc1cc(=O)[nH]c(SCC(=O)N2CCN(C(c3ccccc3)c3ccccc3)CC2)n1 > 76.9 µM
CC1C2C(c3ccccc3)N(C)C(=O)N(C)C2N(C)C(=O)N1C (configuration not stated) > 76.9 µM
CC1(C)CC(=O)C(C(=O)CCCCC(=O)C2C(=O)CC(C)(C)CC2=O)C(=O)C1 > 76.9 µM
Cc1cc(=O)[nH]c(SCC(=O)N2CCCCCC2)n1 > 76.9 µM
CCOC(=O)c1c(NC(=O)CCC(=O)NCc2ccco2)sc2c1CCCC2 > 76.9 µM
CCOC(=O)C1CCN(S(=O)(=O)c2nc3nc(C)cc(C)n3n2)CC1 > 76.9 µM
C=CCn1c(SCC(O)Cn2c3ccccc3c3ccccc32)nnc1-c1ccco1 (configuration not stated) > 76.9 µM

From PubChem BioAssay AID360 (National Center for Advancing Translational Sciences (NCATS), 2006)
